# Measurements published in PubChem BioAssay AID686979 (National Center for Advancing Translational Sciences (NCATS), 2013).
# Where “and” joins values, the source holds several entries; their conditions need not be identical. Identical values can stand only once. In all, about 420,000 compounds went through this assay and about 50,000 (12%) were called active. This list was built around the results that the source calls inconclusive (neither active nor inactive); the mix of calls is not that of the screen. Calls come from the whole dose curve; as a rule, active = well fitted inhibition curve with a large enough effect; inconclusive = small, poorly fitted or top-dose-only effect; inactive = flat fitted curve, though single readings scatter. Potencies of inconclusive entries are doubtful fits and often do not repeat.
# Test: qHTS for Inhibitors of human tyrosyl-DNA phosphodiesterase 1 (TDP1): qHTS in cells in presence of CPT; note: nearly all actives have a fitted effect of over 55% in size
# Conditions: chicken DT40 Tdp1-/-;hTDP1 cells + 20 nM CPT, ATP luminescence, 48 h; activity change, negative = growth inhibition: at 46.2 µM (top of the series) unless noted
# Outline: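 Chicken DT40 Tdp1-/- cells stably complemented with human TDP1 were seeded at 400 cells/well in medium containing 20 nM camptothecin, exposed to pin-transferred compounds, and grown at 37 °C for at least 48 hr. Viability was read as ATP luminescence.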
# % is set by controls: 0 for no effect and ±100 for the full control effect; potency is the fitted concentration of half-maximal effect; tags give direction and shape of the fitted curve.
SMILES,Potency,"activity change, negative = growth inhibition"
CC(C)C[C@@H](C(=O)NC1CCN(Cc2ccccc2)CC1)N1C(=O)N2CCc3c([nH]c4ccccc34)[C@@]2(C)C1=O,active: 11.6 µM,
N#Cc1ccc(C(c2nnnn2CCc2ccccc2)N2CCCCCC2)cc1 (configuration not stated),"inconclusive: 11.6 µM [inhibitor, partial curve]",
CCOC(=O)[C@]12CCCC=C1N(CCc1ccc(OC)c(OC)c1)C(=O)[C@H](CC(=O)NCc1ccc(C)o1)C2,active: 13 µM,
CCCCc1nn2c(=O)cc(CN(CC)c3ccccc3)nc2s1,"inconclusive: 18.4 µM [inhibitor, partial curve]",
Cc1cccc(C(=O)NCC(=O)N2CC=C(c3ccccc3)CC2)c1,"inconclusive: 29.1 µM [inhibitor, single point]",
O=C(Nc1ccc(N2CCCC2)cc1)c1cccc(Cl)c1,,inactive: -23.6%
Cc1ccc(S(=O)(=O)N2CCN(C(=O)CN3C(=O)CNC3=O)CC2)cc1,,inactive: 9.73%
Cc1ccc(S(=O)(=O)N2CCC(=O)N([C@H](COCc3ccc(Cl)cc3Cl)Cc3ccccc3)CC2)cc1,"inconclusive: 18.4 µM [inhibitor, single point]",
Cc1cccc(NC(=O)c2cc(CN3CCOCC3)on2)c1C,,inactive: -7.58%
Cc1cccc(S(=O)(=O)c2cn(C)c3cc(N4CCCCCC4)c(F)cc3c2=O)c1,,inactive: 6.25%
O=C(CSc1ccccc1)N1CCc2c([nH]c3ccccc23)C1c1ccc(Cl)cc1 (configuration not stated),"inconclusive: 29.1 µM [inhibitor, single point]",
C#CCn1c(CCNC(=O)c2ccco2)nc2ccccc21,,inactive: -16.5%
COc1cccc(-n2c(SCC(=O)Nc3cccc(C)c3)nc3c([nH]c4ccccc43)c2=O)c1,"inconclusive: 16.4 µM [inhibitor, partial curve]",
Cc1ccc(NC(=O)NCCOCCn2c(=O)oc3ccccc32)c(C)c1,active: 4.61 µM,
CNS(=O)(=O)c1cccc(C(=O)OCCCC(=O)c2ccccc2)c1,"inconclusive: 18.4 µM [inhibitor, single point]",
Cc1nc(N2CCCC2)ncc1C(=O)NCc1ccc(Cl)cc1,,inactive: -7.16%
CCn1c(NN)nc2sc3c(c2c1=O)CCC3,"inconclusive: 29.1 µM [inhibitor, single point]",
Cc1ccc(-c2cnc3c(Cl)c(C)nn3c2)cc1,active: 20.6 µM,
O=C(CSc1nncc(=O)[nH]1)Nc1cccc([N+](=O)[O-])c1,"inconclusive: 18.4 µM [inhibitor, single point]",
CN(C(=O)Nc1ccccc1)C1CCCc2ccccc21 (configuration not stated),,inactive: -3.88%
CCc1c(C)nc(SCC(=O)NC2CCCC2)[nH]c1=O,,inactive: -2.07%
COc1cc(CN(C(=O)COc2ccc(Cl)cc2)c2ccccn2)cc(OC)c1OC,active: 18.4 µM,
CCOc1ccccc1OCC(=O)OC(C)C(=O)Nc1ncc(Cl)cc1Cl (configuration not stated),,inactive: -22.5%
COc1ccc(OC)c(C2=NS(=O)(=O)N(C)C(C(=O)Nc3ccc(C(C)=O)cc3)=C2)c1,active: 18.4 µM,

SMILES,Potency,"activity change, negative = growth inhibition"
CSc1ccc(C#N)cc1NC(=O)c1ccccc1,,inactive: -0.508%
COC(=O)CC(NC(=O)c1ccco1)c1ccc(C(C)C)cc1 (configuration not stated),"inconclusive: 29.1 µM [inhibitor, single point]",
COCCCNC(=O)c1ccc(-c2c(C)noc2C)c2ccoc12,"inconclusive: 29.1 µM [inhibitor, single point]",
CC(=O)Nc1ccc(-c2ccnc3c2CC(C)(C(=O)NCc2cccc(Cl)c2)O3)cc1 (configuration not stated),"inconclusive: 23.1 µM [inhibitor, single point]",
CC(C)[C@H](NC(=O)c1cccc(CN(Cc2ccccc2)C(=O)c2ccccc2)c1)C(=O)O,,inactive: 0.801%
Cc1cccc(C)c1NC(=O)NCCCN1CCN(c2ccccc2)CC1,inactive,
O=C(COc1ccccc1Cl)N1CCN(c2ccc([N+](=O)[O-])c(N3CCCCC3)c2)CC1,"inconclusive: 29.1 µM [inhibitor, single point]",
O=C(Cn1ccc(=O)[nH]c1=O)Nc1ccc(O)c([N+](=O)[O-])c1,,inactive: -2.03%
CCN(CC)C(=O)Cn1nc(-c2ccc(Cl)cc2)c2ccccc2c1=O,,inactive: -24.9%
CCN1CCN(C(=O)c2ccc(Cl)c(S(=O)(=O)N3CCCCC3)c2)CC1,,inconclusive: -30.4% [inhibitor]
CCc1nc2ccc(C(=O)Nc3cc(-c4ccccc4)ccc3OC)cn2c1N(CC)Cc1cccc(Br)c1,"inconclusive: 29.1 µM [inhibitor, single point]",
CN(C(=O)c1ccco1)c1nc2c(s1)CCCC2,"inconclusive: 20.6 µM [inhibitor, single point]",
COc1ccc(C(=O)/C=C/c2ccc(OCc3ccccc3)cc2)cc1CSCC(=O)O,,inactive: 3.2%
COc1cccc(N2[C@@H](CC(C)=O)c3cc(C(F)(F)F)ccc3S2(=O)=O)c1,"inconclusive: 35.5 µM [inhibitor, single point] and inconclusive: 29.1 µM [inhibitor, single point]",
COCCNC(=O)CCCn1c(=O)c2cc(OC)c(OC)cc2n(CC(=O)Nc2ccc(C)c(F)c2)c1=O,,inactive: 11.2%
Cc1nn(CC(=O)NCc2ccc(-n3cccn3)cc2)c(C)c1[N+](=O)[O-],,inactive: -12.1%
O=C(CSc1nc2c([nH]c3ccccc32)c(=O)n1-c1ccccc1)NCc1ccc(F)cc1,"inconclusive: 29.1 µM [inhibitor, single point]",
CN(C)c1ccc(-c2cncnc2NCc2cccnc2)cc1,"inconclusive: 29.1 µM [inhibitor, single point]",
O=C(NCCCN1CCOCC1)c1ccc(Br)cc1,,inactive: -14.3%
CCNC(=O)C1CCN(c2nc3ccccc3nc2C(F)(F)F)CC1,"inconclusive: 29.1 µM [inhibitor, single point]",
CCC(C)Nc1nc(-c2cccc(OC)c2O)nc2ccccc12 (configuration not stated),"inconclusive: 29.1 µM [inhibitor, single point]",
CN1CCN(c2oc(COc3ccc(-c4ccccc4)cc3)nc2C#N)CC1,"inconclusive: 29.1 µM [inhibitor, single point]",
COc1ccc(CCNC(=O)c2ccc(Cl)c(S(=O)(=O)N3CCCC3)c2)cc1,active: 18.4 µM,
C/C(CC(=O)NC12CC3CC(CC(C3)C1)C2)=N\NC(=O)c1ccc(F)cc1,,inactive: -1.2%

SMILES,Potency,"activity change, negative = growth inhibition"
CC(C)CC1C(=O)N(Cc2cn(CC3CCCCC3)nn2)CCS(=O)(=O)N1Cc1ccc(-c2cccc(C#N)c2)cc1 (configuration not stated),active: 20.6 µM,
Cc1nc(Nc2nc3ccccc3o2)nc2c1CCC2,"inconclusive: 29.1 µM [inhibitor, single point]",
CCOc1cc(/C=N/Nc2nnc(C)n2N)ccc1O,"inconclusive: 9.2 µM [inhibitor, partial curve]",
CCOc1ccc(C(=O)N2CCc3cc(OC)c(OC)cc3C2)cc1OCC,"inconclusive: 25.9 µM [inhibitor, single point]",
COc1cc(/C=N/O)ccc1OCc1ccc(C(=O)O)cc1,,inactive: -27.5%
CC(C)n1ncc2c(C(=O)N3CCN(c4ccccc4)CC3)cc(-c3ccccc3)nc21,"inconclusive: 32.6 µM [inhibitor, partial curve, poor fit]",
O=C(O/N=C\c1ccc(N2CCCCC2)c([N+](=O)[O-])c1)c1c(F)cccc1F,"inconclusive: 29.1 µM [inhibitor, single point]",
COc1ccccc1-c1cc(-c2ccc(O)cc2)nc(N)c1C#N,"inconclusive: 29.1 µM [inhibitor, single point]",
CC(=O)c1nn(-c2ccc(OC(F)(F)F)cc2)nc1Nc1ccc(Cl)cc1,"inconclusive: 2.06 µM [inhibitor, full curve, poor fit]",
CCOc1ccc(N2C(=O)CC(Sc3nc(C)cc(C)c3C#N)C2=O)cc1 (configuration not stated),"inconclusive: 29.1 µM [inhibitor, single point]",
CCSC(C)CC1C/C(=N/O)c2c(CC)noc2C1 (configuration not stated),"inconclusive: 29.1 µM [inhibitor, single point]",
COCCn1c(=S)[nH]c2cc(C(=O)NCc3ccc(F)cc3)ccc2c1=O,,inconclusive: -31.9% [inhibitor]
O=C(CN1C(=O)C2(SCC(=O)N2c2ccccc2)c2ccccc21)Nc1ccccc1C(F)(F)F (configuration not stated),active: 23.1 µM,
N#CC1(NC(=O)COC(=O)Cc2c[nH]c3ccccc23)CCCCC1,,inactive: -6.96%
NS(=O)(=O)c1ccc(NC(=S)NC2CCCCC2)cc1,,inactive: -12.4%
Cc1ccc(C(=O)N(C)CC(=O)Nc2ccc(Cl)c(C(F)(F)F)c2)cc1S(=O)(=O)N1CCCCC1,"inconclusive: 18.4 µM [inhibitor, single point]",
Cc1cccn2c(=O)c(/C=C(\C#N)C(=O)NCc3ccco3)c(N3CCCCC3)nc12,"inconclusive: 29.1 µM [inhibitor, single point]",
COc1ccc(C(=O)c2cnc3ccc(C)cc3c2S(=O)(=O)c2ccccc2)cc1,active: 16.4 µM,
COc1cc(OC)nc(Nc2nc(C(N)CCc3ccccc3)cs2)n1 (configuration not stated),active: 25.9 µM,
CCc1ccc2c(c1)C(NC(C)=O)C(=O)N2CCN1CCOCC1 (configuration not stated),,inactive: 16.9%
CN(Cc1cn[nH]c1-c1cc2ccccc2o1)CC1CCOCC1,,inactive: -3.4%
CCOC(=O)C1CCCN(C(=O)Cn2c(=O)cc(C)c3c(C)nn(C)c32)C1 (configuration not stated),"inconclusive: 20.6 µM [inhibitor, single point]",
Cc1nnc(SCC(=O)Nc2ncc3c(n2)CC(c2ccccc2)CC3=O)s1 (configuration not stated),"inconclusive: 13 µM [inhibitor, partial curve]",
CC(C)Oc1cccc(C(=O)C2CCCN(Cc3cnn(C(C)C)c3)C2)c1 (configuration not stated),"inconclusive: 13 µM [inhibitor, partial curve]",
